Source: publication PMC6919601, “Identification of Plasmodium dipeptidyl aminopeptidase allosteric inhibitors by high throughput screening” (PLoS ONE, 2019)
In all, about 110,000 compounds went through this assay and about 230 (0.21%) showed an effect of 50% or more. Some of the results follow.

Molecular target: DPAP1 (Plasmodium falciparum, UniProt Q8IIJ9)
Assay: primary screen, percent inhibition; read by cleavage of a fluorogenic dipeptide substrate; higher = more effect of the substance
Parameters: species or system P. falciparum D10 trophozoite lysates; single well
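Further: 30 min substrate incubation versus DMSO and 10 µM JCP410 controls.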

DPAP1, sequence (Q8IIJ9 whole entry, looked up): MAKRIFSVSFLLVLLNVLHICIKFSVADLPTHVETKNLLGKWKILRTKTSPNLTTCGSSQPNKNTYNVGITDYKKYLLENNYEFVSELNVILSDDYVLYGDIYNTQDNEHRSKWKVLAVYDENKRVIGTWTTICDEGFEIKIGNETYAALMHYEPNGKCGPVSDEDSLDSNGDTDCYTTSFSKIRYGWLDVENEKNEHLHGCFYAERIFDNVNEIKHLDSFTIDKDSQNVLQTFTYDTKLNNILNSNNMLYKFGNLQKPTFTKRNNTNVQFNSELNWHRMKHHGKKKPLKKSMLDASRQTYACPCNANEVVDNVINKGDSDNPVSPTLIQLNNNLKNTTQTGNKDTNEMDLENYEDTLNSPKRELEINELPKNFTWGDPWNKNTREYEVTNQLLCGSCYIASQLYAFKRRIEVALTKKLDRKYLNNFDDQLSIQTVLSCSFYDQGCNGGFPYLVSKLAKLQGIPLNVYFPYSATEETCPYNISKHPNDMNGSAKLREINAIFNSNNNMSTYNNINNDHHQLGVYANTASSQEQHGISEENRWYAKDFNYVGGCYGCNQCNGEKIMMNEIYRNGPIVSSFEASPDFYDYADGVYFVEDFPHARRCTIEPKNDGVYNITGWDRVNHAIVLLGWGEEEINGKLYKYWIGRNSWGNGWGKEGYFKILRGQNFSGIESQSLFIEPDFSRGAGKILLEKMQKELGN

SMILES | % Inhibition @ 10 uM [%]
COc1ccc(-c2nc(CS(=O)CC(=O)NC(C)c3ccccc3)c(C)o2)cc1OC (stereo not shown) | -2.85
Cn1c(=O)n(Cc2ccccc2)c(=O)c2c1nc(N1CCOCC1)n2Cc1ccccc1 | 5.17
Cc1nn(C)c2c1c(C(F)(F)F)cc(=O)n2CC(=O)NCCc1ccccc1 | 3.66
C/C(=N/N=C(/C)c1cc(C)ccc1OCC(=O)O)c1cc(C)ccc1OCC(=O)O | 1.27
O=C(CCCc1nnc2n3nc(-c4ccccc4)nc3c3ccccc3n12)N1CCOCC1 | 0.44
O=C(O)[C@H]1CCCC[C@H]1C(=O)Nc1ccc(S(=O)(=O)N2CCCCC2)cc1 | -0.898
CN(Cc1ccccc1)C(=O)C1CCN(S(=O)(=O)c2ccc(Cl)cc2)CC1 | 2.17
CC(C)C[C@H](NC(=O)c1ccc(-c2c(Cl)cccc2Cl)cc1Cl)C(=O)NCC#N | -1.82
COc1cc(OC)c(NC(=O)c2cccs2)cc1Cl | -0.711
COC(=O)C1=CN(Cc2ccc(OC)c(OC)c2)C=C(C(=O)OC)C1c1ccc(O)c(OC)c1 | 1.86
CCOc1cc(C2C(C(=O)OC)=C(C)N=C3C2=C(O)c2ccccc23)cc(Cl)c1OC (stereo not shown) | -1.33
Cc1nonc1OCC12CC3CC(CC(C3)C1)C2 | 1.74
Oc1cccc(/C=C/c2ccc3cccc(O)c3n2)c1 | -1.52
COc1ccc(CNC(=O)c2ccc(Cn3cc(Br)cn3)o2)cc1 | 0.413
CCCCc1ccc(S(=O)(=O)C(C)(C)C)cc1 | -2.51
CC(C)CCN(Cc1ccco1)C(=O)c1oc(=O)c2ccccc2c1-c1ccccc1 | 0.66
COc1ccc(-c2cc(C(=O)N3CCN(Cc4ccccc4)CC3)no2)cc1 | 3.2
CCOC(=O)c1c(C)oc2ncnc(N3CCC(C(N)=O)CC3)c12 | 0.0065
O=C(c1cc(S(=O)(=O)N2CCCCC2)ccc1F)N1CCCCC1 | -5.64
N#CC1=C(SCC(=O)Nc2cc(Cl)cc(Cl)c2)NC(=O)CC1c1cccs1 (stereo not shown) | -4.48
CCCC[C@H](NC(=O)[C@H](CC(C)C)NC(=O)[C@H](CC(C)C)NC(=O)OCc1ccccc1)C(=O)CO | 2.22
CC1(C)CC(=O)C2=C(C1)OC(N)=C(C#N)C2Cc1ccccc1 (stereo not shown) | 0.385
CC1(C(=O)Nc2ncc(Cc3cccc(Cl)c3)s2)Cc2ccccc2C(=O)O1 (stereo not shown) | 2.57
COc1cc(OC)c(OC)cc1/C=C1\N=C(c2cccc(Br)c2)OC1=O | -19.6
COc1ccc(/C=C2\COc3ccc(F)cc3C2=O)cc1 | -3.79

SMILES | % Inhibition @ 10 uM [%]
COc1cc(OC)c(CNC2CCCCC2C)cc1Br (stereo not shown) | 1.13
Cc1ccc(-n2cc(-c3ccccc3)c3c(N4CCN(CCO)CC4)ncnc32)cc1Cl | 7.63
CC1CCN(C(=O)N2c3ccccc3Sc3ccccc32)CC1 | -0.496
CC(=O)Nc1ccc(NC(=O)C2(c3ccccc3)CCCC2)cc1 | -3.76
COc1ccccc1C1C(C#N)=C(N)Oc2[nH]nc(-c3cccc4ccccc34)c21 (stereo not shown) | 11.5
CCOC(=O)N1CCN(C(=O)c2cc(C)no2)CC1 | -0.0115
Oc1ccccc1CNC1CCCCC1 | -1.56
Cc1ccc2c(c1)-c1onc(C(=O)N3CCCCC3c3cccnc3)c1CO2 (stereo not shown) | 1.11
Cc1ccc(CN(C(=S)NCC(=O)NCc2ccco2)C2CCCCC2)cc1 | 1.16
CC1=C(C#N)C(c2ccc(OCc3ccc(Cl)cc3)cc2)C2=C(O)CCCC2=N1 (stereo not shown) | 4.09
COC(=O)c1ccc(CN2CCCCC2C)cc1 (stereo not shown) | -1.75
CC(NC(=O)C1CCC(C/N=c2/c(N3CCCC3)c(O)c2=O)CC1)c1ccccc1 (stereo not shown) | -2.17
CC(C)(C)C(=O)Nc1nnc(-c2ccc(Cl)cc2Cl)s1 | -3.02
COc1cccc(C(=O)N2CCN(Cc3ccncc3)CC2)c1 | 7.1
Fc1ccc(-c2cc(-c3nc4c5ccccc5ncn4n3)[nH]n2)cc1 | 3.54
Cc1ccc(NC(=O)CCc2c(C)nc3ncnn3c2C)nc1 | -0.465
COc1ccc(C(=O)C(OC(=O)c2ccncc2)c2ccccc2)cc1 (stereo not shown) | -0.273
O=C(NCc1cccnc1)c1cc(-c2ccco2)on1 | -0.0541
OC(CN1CCOCC1)Cn1c(C(F)(F)F)nc2ccccc21 (stereo not shown) | 0.145
CC(C)(c1ccccc1)c1ccc(OCC(=O)Nc2nc[nH]n2)cc1 | 0.611
N#C/C(=C\c1ccc(Cl)cc1)c1nc(-c2ccc([N+](=O)[O-])cc2)cs1 | 5.64
CCSc1sc(CC)cc1C(=O)O | -0.128
O=C(Cn1ccc2ccccc2c1=O)N1CCN(Cc2ccc3c(c2)OCO3)CC1 | -6.13
CCC1CCc2c(sc(NC(=O)CCC(=O)O)c2C(N)=O)C1 (stereo not shown) | -18.6
Cc1nn(-c2ccc(F)cc2)c(-n2cccc2)c1C(=O)N1CCC(C)CC1 | -3.54

SMILES | % Inhibition @ 10 uM [%]
COCc1cc(C)nc(SCc2ccc(Cl)cc2Cl)c1C#N | -1.25
CC(C)(C)c1ccc(OCc2ccc(C(=O)Nc3cccnc3)o2)cc1 | -11
CCN(CC)CCN1C(=O)C(O)=C(C(=O)c2ccc(F)cc2)C1c1ccccc1F (stereo not shown) | 1.61
CN1CCN(C(=O)CN2C(=O)c3ccccc3Sc3ncccc32)CC1 | -7.24
O=C(NC1(C(F)(F)F)NC(=O)N(Cc2ccccc2)C1=O)c1cccs1 (stereo not shown) | -1.72
CCCCCCOc1ccc(OCC(O)CN2C(=O)NC(C)(C)C2=O)cc1 (stereo not shown) | -3.4
O=C1CC(c2ccccc2)CC(=O)C1=CNC1CCCC1 (stereo not shown) | -3.78
CC1=NN(C(=O)c2ccc(COc3ccc4ccccc4c3)o2)C(O)(C(F)(F)F)C1 (stereo not shown) | -2.83
COCCCNC(=O)/C(=C\c1ccccc1F)NC(=O)c1ccc(C)cc1 | -3.69
CC(C)CN(CC(C)C)S(=O)(=O)c1ccc(C(=O)O)cc1 | -3.04
O=C(Nc1ccccc1O)c1ccc([N+](=O)[O-])cc1 | 3.06
CSc1ccc(CCNC(=O)CCCn2nc(C)c3c(C)n(-c4ccc(C)cc4)nc3c2=O)cc1 | -3.05
COc1ccc(CN2CCN(c3ccc(C(C)=O)cc3)CC2)cc1OC | -2.6
COc1ccc2c(c1)Cc1sc(NC(=O)c3ccccc3Cl)nc1-2 | 3.25
COc1cc2cc(C)nc(Cc3cccc4ccccc34)c2cc1OC | -0.467
Cc1noc(/C=C/N2CCOCC2)c1S(=O)(=O)N(C)CC(=O)NC1CCCCC1 | 17.5
Fc1ccc(CN2CCN(c3cccc(C(F)(F)F)c3)CC2)c(F)c1 | -3.56
Cc1ccc2nc(N3CCNCC3)c(-n3nc(C)cc3C)nc2c1 | -0.92
Cc1ccc(CNC(=O)CSc2nc3nccnc3c(=O)n2CCCOC(C)C)cc1 | -3.73
CCOc1ccc(-n2c(C)nnc2SCc2nc(-c3ccc(Cl)cc3)no2)cc1 | -0.666
CC(=O)Nc1ccc(OC(C)C)cc1 | 4.65
Cc1ccc(C)c(NC(=O)C23CCC(C)(C(=O)C2=O)C3(C)C)c1 (stereo not shown) | -2.84
Nc1ccc2[nH]c(-c3ccc(-c4nc5cc(N)ccc5o4)cc3)nc2c1 | 0.361
CCOc1ccc2nc(NC(=O)CCCCC(=O)O)sc2c1 | 4.55
CC1(C)COC(c2cccc(C3=NC(C)(C)CO3)n2)=N1 | 0.324

SMILES | % Inhibition @ 10 uM [%]
COc1cccc(C2C(C#N)=C(N)N(c3c(F)cccc3F)C3=C2C(=O)CCC3)c1 (stereo not shown) | -8.72
COc1ccc(-c2cc(C)no2)cc1S(=O)(=O)NC1CCCc2ccccc21 (stereo not shown) | 0.098
COc1ccccc1C(=O)Nc1ccc2nn(-c3ccc(N(C)C)cc3)nc2c1 | -6.67
COc1ccccc1-n1c(CNC(=O)c2cccc(C)c2)nnc1SCC(=O)Nc1nccs1 | 2.12
Cc1[nH]c2ccccc2c1/C=C1\SC(=N)N(c2nccs2)C1=O | -4.91
CCOc1cccc2cc(C(=O)Nc3nccs3)c(=O)oc12 | 6.56
Cc1ccc(-c2nc(CS(=O)(=O)CC(=O)N3CC(C)CC(C)C3)c(C)o2)cc1 (stereo not shown) | -1.89
CCOc1ccc(CCNC(=O)CCc2c(C)nc3c4c(C)cc(C)nc4nn3c2C)cc1OCC | 7.05
CC(C)C[C@H](NC(=O)c1ccc(-c2ccccc2)nc1)C(=O)NCC#N | 2.87
CCOC(=O)N1CCN(C(=O)CSc2nnc(Cc3cccn3C)n2-c2ccc(F)cc2)CC1 | -7.65
Cc1ccc(-c2nnc(N3CCOCC3)c3ccccc23)cc1S(=O)(=O)NC(C)(C)CO | 3.59
CC(C)(C)c1ccc(OCCCCCN2CCNCC2)cc1 | 2.54
O=[N+]([O-])c1ccc(Cl)c(CN2CCc3ccccc3C2)c1 | 4.73
Cc1ccc(CC(=O)Nc2nnc(Cc3ccc(Cl)cc3)s2)cc1 | -8.79
COc1cc(OC)cc(-c2cc3nc(C)c(CCC(=O)NCc4ccc(F)cc4)c(C)n3n2)c1 | -0.465
O=C(CCc1nc(-c2ccccc2F)no1)NCCN1CCOCC1 | 6.64
O=C1NC(=S)S/C1=C\c1ccc(-c2cc(Cl)ccc2Cl)o1 | 7.31
Cc1noc2c1C(c1ccsc1)C(C#N)=C(N)N2 (stereo not shown) | 2.32
Cc1cc(N2CCOCC2)c(F)cc1C(=O)c1ccccc1 | -0.711
Cc1cc(-c2[nH]nc3c2C(c2c[nH]c4ccccc24)C(C#N)=C(N)O3)c(C)s1 (stereo not shown) | -0.105
CCOc1ccc(CCNC(=O)Cn2sc3nc(C)cc(C)c3c2=O)cc1 | 18.9
CCc1nc2nc(C)c(NS(=O)(=O)c3ccc(C4CCCCC4)cc3)c(O)n2n1 | 3.5
